# From the supplement of paper PMC9446081
# Among all 39,000 compounds or so, about 220 (0.56%) showed activity. The list shows a part of the results.
# System: Escherichia coli K-12 BW25113
# Assay: relative growth (OD600 normalised to plate interquartile mean) (fraction); higher = less growth inhibition, active = 0.2 or less
# Conditions: 50 µM; LB; incubation time: overnight (16-24 h)
# 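Further: static incubation at 37 °C against the wild-type strain, values averaged over two biological replicates.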
row,Structure (SMILES),relative growth
1,COc1ccc(S(=O)(=O)Nc2ccc3c(c2)C(=O)N([C@H](C)CO)C[C@H](C)[C@H](CN(C)S(=O)(=O)c2cn(C)cn2)OCCCC[C@@H](C)O3)cc1,inactive: 0.991
2,CC(=O)OCC1=C[C@@H]2OC(=O)C3=CO[C@@H](O[C@H]4O[C@H](CO)[C@@H](O)[C@H](O)[C@H]4O)[C@H]1[C@@H]32,inactive: 1.01
3,CCCNC(=O)N(C)C[C@@H]1Oc2cc(C#Cc3ccccn3)ccc2S(=O)(=O)N([C@@H](C)CO)C[C@H]1C,inactive: 1.02
4,CSc1scc(-c2cc(Cl)cc(Cl)c2)c1C#N,inactive: 1.01
5,Cc1ccc(S(=O)(=O)N(C)C[C@@H]2Oc3ccc(NS(=O)(=O)c4cccs4)cc3C(=O)N([C@H](C)CO)C[C@H]2C)cc1,inactive: 1.01
6,CO[C@H]1/C=C/C[C@H](C)[C@@H](C)S(=O)(=O)NC(=O)c2ccc3c(c2)N(C[C@@H]2CC[C@H]21)C[C@@]1(CCCc2cc(Cl)ccc21)CO3,inactive: 0.964
7,NC(=O)c1ncn(C2OC(CO)C(O)C2O)n1 (configuration not stated),inactive: 0.645
8,CC(C)C#Cc1ccc2c(c1)O[C@H](CN(C)C(=O)c1cccc(F)c1)[C@H](C)CN([C@H](C)CO)S2(=O)=O,inactive: 0.968
9,C[C@H](CO)N1C[C@H](C)[C@H](CN(C)C(=O)Nc2ccc(C(F)(F)F)cc2)OCCCC[C@H](C)Oc2ccc(NS(=O)(=O)c3cn(C)cn3)cc2C1=O,inactive: 0.933
10,Nc1cc([N+](=O)[O-])ccc1C(=O)O,inactive: 1.01
11,C[C@H](CO)N1C[C@H](C)[C@@H](CN(C)S(=O)(=O)c2ccc(Cl)cc2)Oc2c(NC(=O)C3CCOCC3)cccc2C1=O,inactive: 0.977
12,Cc1noc(C)c1S(=O)(=O)Nc1cccc2c1O[C@H](CN(C)C(=O)Nc1ccccc1)[C@H](C)CN([C@@H](C)CO)C2=O,inactive: 0.994
13,N[C@@H](Cc1ccc(O)c(O)c1)C(=O)O,inactive: 0.862
14,Cc1ccc(S(=O)(=O)Nc2ccc3c(c2)C(=O)N([C@H](C)CO)C[C@@H](C)[C@@H](CN(C)C(=O)CCC(F)(F)F)OCCCC[C@H](C)O3)cc1,inactive: 0.982
15,C[C@@H]1CN([C@H](C)CO)C(=O)Cc2cc(NS(C)(=O)=O)ccc2O[C@H]1CN(C)Cc1ccc(C(F)(F)F)cc1,inactive: 0.965
16,C[C@H](CO)N1C[C@H](C)[C@H](CN(C)S(=O)(=O)c2ccccc2)Oc2ncc(-c3cccc(F)c3)cc2C1=O,inactive: 0.979
17,CCCCCC(CC(=O)O)C(=O)O (configuration not stated),inactive: 0.973
18,C=CCOC[C@H](O)Cn1c(N2CCOCC2)nc2c1c(=O)n(C)c(=O)n2C,inactive: 0.988
19,C[C@@H]1CN([C@@H](C)CO)C(=O)c2cc(C#C[C@@H](C)O)cnc2O[C@@H]1CN(C)Cc1cncnc1,inactive: 0.982
20,C[C@H](CO)N1C[C@H](C)[C@H](CN(C)C(=O)Nc2cccc3ccccc23)Oc2ccc(NC(=O)Nc3ccc(F)cc3)cc2C1=O,inactive: 1.03
21,C[C@H]1CCCCO[C@@H](CN(C)C(=O)C2CCCCC2)[C@@H](C)CN([C@@H](C)CO)C(=O)c2cc(NC(=O)Nc3ccc(C(F)(F)F)cc3)ccc2O1,inactive: 1.11

row,Structure (SMILES),relative growth
1,O=c1c2ccccc2oc2ccccc12,inactive: 1.03
2,COCC(=O)N(C)C[C@@H]1Oc2cc(C#Cc3cccnc3)ccc2S(=O)(=O)N([C@@H](C)CO)C[C@@H]1C,inactive: 1.02
3,Cc1ccc(S(=O)(=O)Nc2ccc3c(c2)C(=O)N([C@@H](C)CO)C[C@H](C)[C@H](CN(C)C(=O)Nc2ccc(C(F)(F)F)cc2)OCCCC[C@H](C)O3)cc1,inactive: 1.01
4,COc1ccc2c3c([nH]c2c1)[C@@H](CO)N(C[C@]13CCN(CC1)C(=O)Nc1cccc(c1)F)C(=O)c1ccccc1,inactive: 0.982
5,C[C@H](CO)N1C[C@H](C)[C@H](CN(C)S(C)(=O)=O)Oc2c(NC(=O)Nc3ccc4c(c3)OCO4)cccc2C1=O,inactive: 0.992
6,O=C(C[C@@H]1C=C[C@H](NC(=O)c2ccc(F)cc2)[C@@H](CO)O1)NCc1ccncn1,inactive: 0.994
7,N[C@H](c1ccc2c(c1)OCCO2)c1ccco1,inactive: 1.02
8,CS(=O)(=O)[O-].C[n+]1ccccc1C=NO,inactive: 0.991
9,CO[C@H]1CN(S(=O)(=O)c2cn(C)cn2)[C@H]2COC[C@@H]12,inactive: 0.983
10,COc1ccc(C(=O)NC(CO)(CO)CO)cc1OC,inactive: 0.908
11,O=C1N(Cc2ccccc2)Cc2ccccc2[C@H]2OC(c3ccc(OCCCO)cc3)=N[C@@]12Cc1ccccc1,inactive: 1.02
12,Cn1cnc(S(=O)(=O)N[C@@H]2C=C[C@H](CC(=O)Nc3ccccc3)O[C@@H]2CO)c1,inactive: 1.02
13,Nc1ccc(Sc2ccc3ccccc3c2Cl)c(Cl)c1,inactive: 0.932
14,COc1ccc(C#Cc2ccc3c(c2)O[C@@H](CN(C)C(=O)c2ccccn2)[C@H](C)CN([C@H](C)CO)S3(=O)=O)cc1,inactive: 1
15,C[C@@H]1CN([C@H](C)CO)C(=O)c2cc(NC(=O)Cc3cn(C)c4ccccc34)ccc2O[C@@H]1CN(C)S(=O)(=O)c1cn(C)cn1,inactive: 1
16,C[C@@H]1CN([C@@H](C)CO)C(=O)Cc2cc(NS(=O)(=O)c3ccc(F)cc3)ccc2O[C@H]1CN(C)S(C)(=O)=O,inactive: 1.02
17,CCC[C@@H](O)C#Cc1cnc2c(c1)C(=O)N([C@H](C)CO)C[C@H](C)[C@H](CN(C)C(=O)Nc1c(C)noc1C)O2,inactive: 1.04
18,CO[C@@H]1CN(C)C(=O)c2cc(NC(=O)Nc3ccccc3F)ccc2OC[C@H](C)N(CCC(F)(F)F)C[C@H]1C,inactive: 0.999
19,O=C(Nc1ccccc1)c1ccco1,inactive: 0.917
20,Cc1noc(C)c1NC(=O)Nc1ccc2c(c1)CC(=O)N([C@H](C)CO)C[C@@H](C)[C@@H](CN(C)S(=O)(=O)c1cccs1)O2,inactive: 0.984
21,CO[C@@H]1CN(C)C(=O)c2ccc(NC(=O)Nc3ccc(F)cc3)cc2OC[C@@H](C)N(C(=O)c2ccc(F)cc2)C[C@H]1C,inactive: 1
